# Assay results from PubChem BioAssay AID2451 (National Center for Advancing Translational Sciences (NCATS), 2010).
# Screen size: about 290,000 compounds; about 2,100 (0.72%) were called active. The inconclusive results got no clear call from the source; some entries with a clear call stand among them for comparison. Calls follow the shape of the dose curve; as a rule, active = well fitted inhibition curve with a large enough effect; inconclusive = small, poorly fitted or top-dose-only effect, or effect the other way; inactive = flat fitted curve, though single readings scatter. Where the call is inconclusive, the potency comes from a doubtful curve fit.
# Target: Fructose-bisphosphate aldolase (Giardia intestinalis (strain ATCC 50803 / WB clone C6)) (UniProt A8B2U2)
# Chain of UniProt A8B2U2 (A8B2U2 whole entry, looked up): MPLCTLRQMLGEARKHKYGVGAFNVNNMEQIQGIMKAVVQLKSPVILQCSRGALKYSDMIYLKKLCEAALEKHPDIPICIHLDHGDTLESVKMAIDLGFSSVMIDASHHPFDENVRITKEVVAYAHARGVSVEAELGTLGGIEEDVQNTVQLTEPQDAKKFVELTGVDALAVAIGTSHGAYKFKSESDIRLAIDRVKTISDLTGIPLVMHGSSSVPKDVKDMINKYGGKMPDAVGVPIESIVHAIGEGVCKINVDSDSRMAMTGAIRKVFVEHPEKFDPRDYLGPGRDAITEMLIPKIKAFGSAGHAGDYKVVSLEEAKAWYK
# Test: qHTS Assay for Inhibitors of Fructose-1,6-bisphosphate Aldolase from Giardia Lamblia; also: nearly all actives have a fitted effect of over 55% in size
# Conditions: purified Giardia FBPA; activity, negative = inhibition: at 59.6 µM (top of the series) unless noted
# Outline: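 40 nM FBPA preincubated 10 min at RT with compound (up to 57.5 uM final), then substrate plus GAPDH/TPI/NAD/arsenate coupling and diaphorase/resazurin added. Fluorescence read after 20 min at RT, 525/598 nm.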
# % is scaled to controls: 0 for no effect and ±100 for the full control effect; potency is read from the fitted curve at half-maximal effect; tags tell the direction and shape of the fitted curve.
Structure (SMILES),Potency,"activity, negative = inhibition"
COc1ccc(OC)c(NC(=O)CSc2n[nH]c(-c3cccnc3)n2)c1,"inconclusive: 25.1 µM [inhibitor, partial curve]",
Cc1cc(NC(=O)CSc2nc(C3CCCCC3)nc3ccccc23)no1,,inactive: 3.16%
COc1ccc(/C(O)=C2/C(=O)C(=O)N(CCN3CCOCC3)C2c2ccccn2)cc1OC (stereo unspecified),"inconclusive: 22.3 µM [inhibitor, single point]",
CC(C)N1CCN(c2ccc(O)cc2)CC1,"inconclusive: 7.92 µM [inhibitor, partial curve]",
CCOC(=O)C1CCN(Cc2oc(CO)cc(=O)c2O)CC1,"inconclusive: 17.7 µM [inhibitor, single point]",
Cc1ccc(-c2nc(C=Nc3ccc(O)cc3)c(O)o2)cc1,,inactive: -0.157%
CCNc1ncc2nc(-c3cccc(C#N)c3)c(=O)n(CCC#N)c2n1,,inactive: 3.5%
CC(/C=C/c1ccccc1)=N\NC(=O)c1ccc(Br)cc1,,inactive: 9.07%
CCn1c(SCC(=O)N/N=C/C=C/c2ccco2)nc2ccccc21,,inactive: -29.7%
O=C(O)c1ccc(CSCc2c(F)cccc2Cl)o1,"inconclusive: 15.8 µM [activator, single point]",
COc1ccc(OCc2nnc(SCC(=O)N3CCCc4ccccc43)n2-c2ccc(C)cc2)cc1,,inactive: -6.6%
Cc1nn(C(C)(C)C)c(N)c1-c1ccccc1,,inactive: 0.897%
O=C(NCCCO)c1ccc2nc(-c3ccco3)c(-c3ccco3)nc2c1,"inconclusive: 3.54 µM [inhibitor, full curve]",
Cc1onc(-c2ccccc2)c1C(=O)NNC(=S)NC(=O)/C=C/c1ccccc1,"inconclusive: 17.7 µM [activator, partial curve]",
O=C(N/N=C/c1c(O)n(-c2ccccc2Cl)c(=O)c2ccccc12)C1COc2ccccc2O1 (stereo unspecified),"inconclusive: 19.9 µM [activator, single point]",
Cc1nc(=O)c(-c2ccccc2)c(C)n1-c1ccc(S(N)(=O)=O)cc1,,inactive: 2.23%
COc1ccc(N=Nc2c(C)[nH][nH]c2=O)cc1,"inconclusive: 7.92 µM [inhibitor, partial curve]",
C[C@]12CC[C@@H]3c4cc(O)c(O)cc4CC[C@H]3[C@@H]1CC[C@@H]2O,active: 15.8 µM,
CCC(C)(C)n1nnnc1C(c1cc2cc(OC)ccc2[nH]c1=O)N1CCc2ccccc21 (stereo unspecified),"inconclusive: 15.8 µM [inhibitor, partial curve]",
Cc1nc(NC(=S)NC(=O)c2ccco2)sc1C(=O)N(C)C,active: 10 µM,
CCN1CCN(C(=S)NCC2CCCO2)CC1 (stereo unspecified),"inconclusive: 19.9 µM [inhibitor, partial curve]",
Cn1cccc1CC(=O)N/N=C/C=C/c1ccco1,"inconclusive: 17.7 µM [inhibitor, single point]",
Cc1cc(C)nc(NNC2=CC(=[N+]3CCCC3)CCC2)n1,"inconclusive: 3.15 µM [inhibitor, full curve]",
Cc1nnc(C)c2c(C)n(-c3ccc4ncccc4c3)c(C)c12,"inconclusive: 7.92 µM [inhibitor, partial curve]",
COc1ccc(C(=O)O/N=C(/c2cccs2)C(C)(C)C)cc1,,inactive: 0.379%
COc1cccc2cc(-c3csc(CCn4nc(C)cc4C)n3)c(=O)oc12,,inactive: -3.71%

Structure (SMILES),Potency,"activity, negative = inhibition"
COC(=O)c1cc(NC(=O)c2ccoc2C)cc(C(=O)OC)c1,"inconclusive: 6.29 µM [activator, single point]",
O=C(CC1CCCC1)Nc1nc2ccccc2[nH]1,,inactive: 1.52%
Cc1cc2n(c1)CCn1c(C)ccc1-2,"inconclusive: 11.2 µM [inhibitor, partial curve]",
O=C(Nc1ccc2oc(=O)ccc2c1)c1ccc(-c2ccccc2[N+](=O)[O-])o1,,inactive: -14%
Cc1ccc(/C=N/Nc2cn[nH]c(=O)n2)o1,active: 17.7 µM,
Cc1ccc2nc3c(c(N)c2c1)CCN3c1ccccc1,"inconclusive: 22.4 µM [inhibitor, single point]",
c1ccc2c(c1)CCN(c1nc3ccccc3n3cnnc13)C2,"inconclusive: 28.1 µM [inhibitor, single point]",
COc1ccc(OC)c(-n2c(-c3ccn[nH]3)n[nH]c2=S)c1,"inconclusive: 15.8 µM [inhibitor, single point]",
CS/C(N)=N/C(=S)Nc1cccc(Cl)c1,"inconclusive: 14.1 µM [inhibitor, partial curve]",
Fc1ccccc1N1CCN(Cc2cccnc2)CC1,"inconclusive: 22.3 µM [inhibitor, single point]",
CCc1nnc(-n2nc(C)cc2-c2ccccc2)n1N,"inconclusive: 19.9 µM [inhibitor, partial curve]",
CCOC(=O)N1CCC(N2CCN(S(=O)(=O)c3ccc(NC(C)=O)cc3)CC2)CC1,"inconclusive: 17.7 µM [inhibitor, partial curve]",
O=C(Nc1ccc(Br)cc1)N1CCCCC1,,inactive: -4.2%
COn1c2c(c3c4nonc4ccc31)CCCC2,"inconclusive: 3.54 µM [inhibitor, partial curve]",
COc1ccc(NC(=S)NNC(=O)COc2ccc(Cl)cc2Cl)cc1,"inconclusive: 17.7 µM [activator, single point]",
COc1cc(NC2CCCCC2O)c2nc(-c3ccc(Cl)cc3)ccc2c1 (stereo unspecified),"inconclusive: 19.9 µM [inhibitor, partial curve]",
COc1ccccc1C(=O)NNC(=O)c1ccccc1Br,"inconclusive: 15.8 µM [inhibitor, partial curve]",
COc1ccc(/C=C/C(=O)C2(O)CCCCC2)cc1,,inactive: -1.56%
CN(Cc1ccccc1)C(=O)CN1C(=O)COc2ccc(S(=O)(=O)N3CCCC3)cc21,,inactive: 5.05%
C#CCn1c(O)c(N=NC(=O)CNC(=O)c2cccnc2)c2ccccc21,"inconclusive: 14.1 µM [inhibitor, partial curve]",
Cc1ccn(CC(=O)N/N=C/c2cc([N+](=O)[O-])ccc2O)n1,"inconclusive: 44.6 µM [activator, single point]",
Cc1ccc(COc2ccc(CNCCCN3CCCCCC3=O)cc2)cc1,"inconclusive: 17.8 µM [inhibitor, single point]",
COc1cccc(C2=NOC(C(=O)N3CCOCC3)C2)c1 (stereo unspecified),,inactive: 4.96%
COCCN=c1scc(-c2ccc3c(c2)NC(=O)CO3)n1/N=C(\C)c1ccc(O)cc1,"inconclusive: 31.5 µM [inhibitor, single point]",
O=C(Nc1ccc(N2CCN(C(=O)c3ccco3)CC2)c(Cl)c1)c1cc2ccccc2o1,"inconclusive: 17.7 µM [inhibitor, partial curve]",
CC1(C)S[C@H]2[C@@H](N)C(=O)N2[C@H]1C(=O)O,"inconclusive: 19.9 µM [inhibitor, partial curve]",

Structure (SMILES),Potency,"activity, negative = inhibition"
CN(C)c1ccc(CN2CCC(C(N)=O)CC2)cc1,"inconclusive: 19.9 µM [inhibitor, partial curve]",
COc1cc2c(cc1O)[C@H](Cc1ccc(Oc3cc(C[C@@H]4NCCc5cc(OC)c(O)cc54)ccc3O)cc1)NCC2,"inconclusive: 15.8 µM [inhibitor, partial curve]",
CCOC(=O)NNc1ccc2nonc2c1[N+](=O)[O-],active: 7.06 µM,
COc1ccc(N2C(S)=C(C#N)C(=O)NC2c2ccco2)cc1 (stereo unspecified),"inconclusive: 14.1 µM [inhibitor, partial curve]",
Cc1nn(-c2ccccn2)c2c1-c1nc(N)ncc1CC2,active: 15.8 µM,
COc1ccc(C=Nc2ccc3[nH]ncc3c2)c(O)c1,"inconclusive: 3.15 µM [inhibitor, full curve]",
Cc1nn(C)cc1/C=N/NC(=S)Nc1ccccc1,"inconclusive: 50 µM [inhibitor, partial curve]",
CCOC(=O)COc1ccc2c(C#N)c3ccccn3c2c1,active: 5.61 µM,
CC(C)c1ccc(S(=O)(=O)/N=C2/C=C(Sc3ncn[nH]3)C(=O)c3ccccc32)cc1,active: 0.446 µM,
Cc1cccnc1Nc1nc(-c2ccc(O)c(O)c2)cs1,active: 9.98 µM,
COc1ccc(C(=O)c2c(N)sc3c2CCN(C)C3)cc1,"inconclusive: 22.4 µM [inhibitor, single point]",
COc1cc(OC)cc(C(=O)Nc2ccc(Nc3ccccc3)cc2)c1,,inactive: 13.3%
COCCCN(C(=S)NC(=O)c1ccc(Br)cc1)c1c(N)n(Cc2ccccc2)c(=O)[nH]c1=O,"inconclusive: 7.92 µM [inhibitor, partial curve]",
O=C(Cn1nnc(-c2ccc(F)cc2)n1)OCC(=O)c1ccccc1,,inactive: -5.04%
COC(=O)Nc1ccc2c(c1)OCO2,,inactive: -21%
COc1cc(C=O)c([N+](=O)[O-])cc1OC,active: 5 µM,
COC(=O)c1cccc(C23CC4(C2)[C@H](CN(CC2CCCCC2)[C@@H]4c2ccccc2)C3c2ccc(C(F)(F)F)cc2)c1 (stereo partly specified),,inactive: -0.435%
COc1ccc(NC(=O)c2cc(-c3ccco3)nc3ccccc23)cc1S(=O)(=O)N1CCOCC1,"inconclusive: 9.98 µM [inhibitor, partial curve]",
CCCOCC(O)CCc1n[nH]c(=S)n1-c1ccccc1 (stereo unspecified),"inconclusive: 5 µM [inhibitor, single point]",
CCCN(CCC)C(=O)c1cc([N+](=O)[O-])cc2c1-c1ccc([N+](=O)[O-])cc1C2=C(C#N)C#N,"inconclusive: 6.29 µM [inhibitor, partial curve]",
CC(C)(C)c1ccc(OCCCn2ccnc2)cc1,active: 28.2 µM,
Cc1ccc(Cl)cc1NC(=O)Nc1cccs1,,inactive: -13.3%
O=S1(=O)CCOCCN1Cc1ccc(Cl)cc1Cl,,inactive: 8.95%
CC(C)n1cc(/C(N)=N/O)c(=O)n(Cc2ccccc2)c1=O,,inactive: -0.277%
